This passage reports Cli human and Cli mouse results from paper PMC5573416, “Inhibiting mycobacterial tryptophan synthase by targeting the inter-subunit interface” (Scientific Reports, 2017).

The conditions of this data set: for Cli human: human microsomal fraction; for Cli mouse: mouse microsomal fraction. How it is done:
Pooled mouse and human liver microsomes were purchased from Xenotech. Microsomes (final protein concentration 0.5 mg/mL, 5 mM MgCl2) and test compound (final substrate concentration 0.5 µM; final DMSO concentration 0.5%) in 0.1 M phosphate buffer pH 7.4 were pre-incubated at 37 °C prior to the addition of NADPH (final concentration 1 mM) to initiate the reaction. The final incubation volume was 600 µL. Control samples were included for each compound tested where 0.1 M phosphate buffer pH 7.4 was added instead of NADPH (minus NADPH). Midazolan was included as control in every experiment. Each compound was incubated for 30 min and samples (90 µL) were taken at 0, 5, 10, 20 and 30 min. The minus NADPH control was sampled at 0 and 30 min only. The reactions were stopped by the addition of 200 µL of acetonitrile:methanol (3:1) containing an internal standard, followed by centrifugation at 3700 rpm for 15 min at 4 °C to precipitate the protein. Quantitative analysis was performed using specific LC-MS/MS conditions. Data analysis: from a plot of ln peak area ratio (compound peak area/internal standard peak area) against time, the gradient of the line was determined. Subsequently, half-life and intrinsic clearance were calculated using the equations below:
Elimination rate constant(k)=(−gradient)
Intrinsic Clearance(CLint)(mL/min/g protein)=V×0.693/t1/2
where V = Incubation volume mL/g microsomal protein.

Consider “(3R,4R)-3-(4-(2-chlorophenyl)piperidin-1-yl)-4-hydroxytetrahydrothiophene 1,1-dioxide [Compound 4]”, for which the Cli human came out at 1.1 mL/min/g and the Cli mouse was <0.5 mL/min/g.

“(3R,4R)-3-(4-(2-chloro-4-fluorophenyl)piperidin-1-yl)-4-hydroxytetrahydrothiophene 1,1-dioxide [Compound 5]” displayed a Cli human of 1.7 mL/min/g and a Cli mouse of 73.7 mL/min/g.
